Experiments:
[1] = system: PDX model LIV#219 of nude mice with human liver cancer; assay: Antitumor activity in LIV#219 liver cancer PDX model; format: in vivo, BALB/c nude mice; settings: 3 mg/kg; for relative tumor proliferation rate (T/C) (%) / tumor growth inhibition rate (TGI %): Day 26; for inhibitory activity on tumor growth: result in words; for tolerance of tumor-bearing mice: result in words (animal body weight, Figure 17)
Protocol: The antitumor activity of GPC3-ADCs was tested in an LIV#219 liver cancer PDX model. The model has a higher expression level of GPC3 RNA, and a positive expression of GPC3 as confirmed by FACS analysis.
The process of the establishment of a PDX model of nude mice with human liver cancer was as follows: A tumor tissue with a volume size of about 15-30 mm^3 was transplanted subcutaneously under the back of the BALB/c nude mice. When the tumor volume reached 250-360 mm^3, the mice were divided into a total of 4 groups by a randomized block method, with 6 mice per group, ensuring uniformity in tumor volume and balance in body weight between these groups. The groups included a vehicle group, a 3 mg/kg GC33-L1-D1 administration group, a 3 mg/kg Hu 52H5D3B8-7-L1-D1 administration group, and a 3 mg/kg Hu 52H5D3B8-8-L1-D1 administration group.
Data analysis: During the experiment, the tumor volume was measured twice a week. The calculation formula for the tumor volume (TV) is: TV = l × w^2 / 2, in which l and w represent the measured length and width of the tumor, respectively. According to the measurement results, the relative tumor volume (RTV) was calculated by RTV = Vf / V0, in which V0 is the tumor volume measured at the time of grouping for administration (i.e., Day 0), and Vf is the tumor volume measured on the last day. Relative tumor proliferation rate (T/C) (%) = (RTV in drug administration group / RTV in vehicle group) × 100%. Tumor growth inhibition rate (TGI %) = (average tumor volume in vehicle group - average tumor volume in drug administration group) / average tumor volume in vehicle group × 100%. When T/C (%) ≤ 40% and P < 0.05, the test sample was believed to have a significant inhibitory effect on tumor growth.

HepG2 cells = assay: FACS binding of GPC3 antibody and ADC to HepG2 cells; design: species or system Human; settings: 4°C 60 minutes
Excerpt: It was confirmed by an FACS experiment that the binding of ADC was basically unaffected by Cys conjugation, and at the same time Hu 52H5D3B8-8 ADC and GC33 ADC were compared for cell binding.
After digestion by trypsin-EDTA, the cultured HepG2 cells were collected. After centrifugation, the cells were resuspended in FACS buffer (PBS + 2% FBS), the cell density was adjusted, and the cells were dispensed to a 96-well U-bottom cell culture plate, such that each well contained 200,000-500,000 cells. The antibody or ADC diluted with FACS buffer in a 4-fold gradient manner was added and uniformly mixed, such that the final starting concentration of each sample was finally 10 µg/mL. The 96-well plate was incubated at 4°C for 60 minutes. The cells in the wells were thoroughly washed with FACS buffer to remove unbound antibodies and ADCs. Goat anti-Human IgG (H+L) Secondary Antibody, Alexa Fluor 488 (Invitrogen), diluted with FACS buffer at 1 : 1,000 was added and incubated at 4°C in the dark for 30 minutes. The cells in the wells were washed with FACS buffer to remove unbound secondary antibodies. The cell sample was analyzed for fluorescence signal by CytoFLEX flow cytometer (Beckman Coulter). […] Table 3: Binding (EC50) of each GPC3 antibody and ADC to HepG2 cells

Molecule | relative tumor proliferation rate (T/C) (%) [1] | tumor growth inhibition rate (TGI %) [1] | inhibitory activity on tumor growth [1] | tolerance of tumor-bearing mice [1] | EC50 (HepG2 cells)
Hu 52H5D3B8-7-L1-D1 (conjugate) heavy: EVQLVQSGAEVKKPGASVKVSCKASGYTFTDYEMHWVRQAPGQGLEWMGAIHPGSGGTAYNQKFKGRVTMTADKSISTAYMELSRLRSDDTAVYYCTRFYSYAYWGQGTLVTVSS[human IgG1 constant region not printed] light: DVVMTQTPLSLSVTPGQPASISCRSSQSLVHSNGNTYLQWYLQKPGQSPQLLIYKVSNRFSGVPDRFSGSGSGTDFTLKISRVEAEDVGVYYCSQSIHVPYTFGGGTKVEIKRTVAAPSVFIFPPSDEQLKSGTASVVCLLNNFYPREAKVQWKVDNALQSGNSQESVTEQDSKDSTYSLSSTLTLSKADYEKHKVYACEVTHQGLSSPVTKSFNRGEC | 33.58% | 66.42% | significant inhibitory activities on tumor growth | well tolerated | 
Hu 52H5D3B8-8-ZLA (conjugate) heavy: EVQLVQSGAEVKKPGASVKVSCKASGYTFTDYEMHWVRQAPGQGLEWMGAIHPGSGGTAYNQKFKGRVTMTADKSISTAYMELSRLRSDDTAVYYCTRFYSYAYWGQGTLVTVSS[human IgG1 constant region not printed] light: DVVMTQTPLSLSVTPGQPASISCRSSQSLVHSNGNTYLQWYLQKPGQSPQLLIYKVSNRFSGVPDRFSGSGSGTDFTLKISRVEAEDVGVYFCSQSIHVPYTFGGGTKVEIKRTVAAPSVFIFPPSDEQLKSGTASVVCLLNNFYPREAKVQWKVDNALQSGNSQESVTEQDSKDSTYSLSSTLTLSKADYEKHKVYACEVTHQGLSSPVTKSFNRGEC |  |  |  |  | 0.0569 µg/mL
Hu 52H5D3B8-8-L1-D1 (conjugate) heavy: EVQLVQSGAEVKKPGASVKVSCKASGYTFTDYEMHWVRQAPGQGLEWMGAIHPGSGGTAYNQKFKGRVTMTADKSISTAYMELSRLRSDDTAVYYCTRFYSYAYWGQGTLVTVSS[human IgG1 constant region not printed] light: DVVMTQTPLSLSVTPGQPASISCRSSQSLVHSNGNTYLQWYLQKPGQSPQLLIYKVSNRFSGVPDRFSGSGSGTDFTLKISRVEAEDVGVYFCSQSIHVPYTFGGGTKVEIKRTVAAPSVFIFPPSDEQLKSGTASVVCLLNNFYPREAKVQWKVDNALQSGNSQESVTEQDSKDSTYSLSSTLTLSKADYEKHKVYACEVTHQGLSSPVTKSFNRGEC | 39.93% | 60.07% | significant inhibitory activities on tumor growth | well tolerated | 
Hu 52H5D3B8-8-L4-D4 (conjugate) heavy: EVQLVQSGAEVKKPGASVKVSCKASGYTFTDYEMHWVRQAPGQGLEWMGAIHPGSGGTAYNQKFKGRVTMTADKSISTAYMELSRLRSDDTAVYYCTRFYSYAYWGQGTLVTVSS[human IgG1 constant region not printed] light: DVVMTQTPLSLSVTPGQPASISCRSSQSLVHSNGNTYLQWYLQKPGQSPQLLIYKVSNRFSGVPDRFSGSGSGTDFTLKISRVEAEDVGVYFCSQSIHVPYTFGGGTKVEIKRTVAAPSVFIFPPSDEQLKSGTASVVCLLNNFYPREAKVQWKVDNALQSGNSQESVTEQDSKDSTYSLSSTLTLSKADYEKHKVYACEVTHQGLSSPVTKSFNRGEC |  |  |  |  | 0.06929 µg/mL
